# Results published in the supplement of paper PMC4604168 (melanoma cell lines).
# Some of the results follow. Repeats are few or missing, and single values can be far off.
# Experiments:
# Assay in all cases: cell count relative to DMSO control; melanoma cells; higher = more viable cells
# Settings in all cases: library dose: low library concentration; 72 h
# WM115 = test system: WM115
# WM1716 = test system: WM1716
# WM1745 = test system: WM1745
# WM3526 = test system: WM3526
# WM3619 = test system: WM3619
# WM451Lu = test system: WM451Lu
# 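Further: cell number obtained by counting DAPI-stained nuclei in high-throughput microscope images with image analysis software, screen run in 1,536-well plates.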
smiles,measurement,setting,value
"NC1(c2ccc(-c3nc4ccn5c(=O)[nH]nc5c4cc3-c3ccccc3)cc2)CCC1 + C=CCNC1=C2C[C@@H](C)C[C@H](OC)[C@H](O)[C@@H](C)/C=C(\C)[C@H](OC(N)=O)[C@@H](OC)/C=C\C=C(/C)C(=O)NC(=CC1=O)C2=O [Tanespimycin] (first compound 0.4 µM, partner dose 0.002 µM)",cell count,WM115,90.9%
same,cell count,WM1716,97.6%
same,cell count,WM1745,92.6%
same,cell count,WM3526,65.9%
same,cell count,WM3619,92.7%
same,cell count,WM451Lu,95.8%
"C=C(c1ccc(C(=O)O)cc1)c1cc2c(cc1C)C(C)(C)CCC2(C)C [Bexarotene] + O=C(Nc1cccc(Cl)c1)Nc1ncc(CCNc2ncnc3ccsc23)s1 [SNS314] (first compound 2 µM, partner dose 0.0008 µM)",cell count,WM115,82.6%
same,cell count,WM1716,95.5%
same,cell count,WM1745,82%
same,cell count,WM3526,62.8%
same,cell count,WM3619,78.2%
same,cell count,WM451Lu,96.8%
"CS(=O)(=O)c1ccc(C(=O)Nc2ccc(Cl)c(-c3ccccn3)c2)c(Cl)c1 [vismodegib] + Nc1cccc2c1CN(C1CCC(=O)NC1=O)C2=O [lenalidomide] (first compound 1 µM, partner dose 1 µM)",cell count,WM115,112%
same,cell count,WM1716,102%
same,cell count,WM1745,91.8%
same,cell count,WM3526,97.7%
same,cell count,WM3619,103%
same,cell count,WM451Lu,102%
"C=C(c1ccc(C(=O)O)cc1)c1cc2c(cc1C)C(C)(C)CCC2(C)C [Bexarotene] + O=C(Nc1ccccc1)c1cc([N+](=O)[O-])ccc1Cl [GW9662] (first compound 2 µM, partner dose 2 µM)",cell count,WM115,99.9%
same,cell count,WM1716,69.7%
same,cell count,WM1745,92.5%
same,cell count,WM3526,80.6%
same,cell count,WM3619,83.1%
same,cell count,WM451Lu,83.4%
"CS(=O)(=O)c1ccc(C(=O)Nc2ccc(Cl)c(-c3ccccn3)c2)c(Cl)c1 [vismodegib] + c1cc(-c2cnn3cc(-c4ccc(OCCN5CCCCC5)cc4)cnc23)ccn1 [Dorsomorphin] (first compound 1 µM, partner dose 0.4 µM)",cell count,WM115,109%
same,cell count,WM1716,73.7%
same,cell count,WM1745,71.3%
same,cell count,WM3526,93.8%
same,cell count,WM3619,93.3%
same,cell count,WM451Lu,92.2%
"CN(c1ncccc1CNc1nc(Nc2ccc3c(c2)CC(=O)N3)ncc1C(F)(F)F)S(C)(=O)=O + O=c1cc(-c2cccc3c2Sc2ccccc2S3)oc(N2CCOCC2)c1 [KU55933] (first compound 0.08 µM, partner dose 1 µM)",cell count,WM115,80.5%
same,cell count,WM1716,102%
same,cell count,WM1745,78.3%
same,cell count,WM3526,91%
same,cell count,WM3619,91.4%
same,cell count,WM451Lu,69.5%
"CS(=O)(=O)c1ccc(C(=O)Nc2ccc(Cl)c(-c3ccccn3)c2)c(Cl)c1 [vismodegib] + C[C@@H]1CCN(C(=O)CC#N)C[C@@H]1N(C)c1ncnc2[nH]ccc12 [CP690550] (first compound 1 µM, partner dose 1 µM)",cell count,WM115,94.9%
same,cell count,WM1716,106%
same,cell count,WM1745,94.8%
same,cell count,WM3526,91.3%
same,cell count,WM3619,90.4%
same,cell count,WM451Lu,81.8%
"CCCS(=O)(=O)Nc1ccc(F)c(C(=O)c2c[nH]c3ncc(Cl)cc23)c1F + CO[C@@H]1[C@H](N(C)C(=O)c2ccccc2)C[C@H]2O[C@]1(C)n1c3ccccc3c3c4c(c5c6ccccc6n2c5c31)C(=O)NC4 [Midostaurin] (first compound 0.08 µM, partner dose 0.08 µM)",cell count,WM115,103%
same,cell count,WM1716,102%
same,cell count,WM1745,90.4%
same,cell count,WM3526,61.4%
same,cell count,WM3619,68.3%
same,cell count,WM451Lu,111%
"CS(=O)(=O)c1ccc(C(=O)Nc2ccc(Cl)c(-c3ccccn3)c2)c(Cl)c1 [vismodegib] + COc1cc(Nc2ncc(F)c(Nc3ccc4c(n3)NC(=O)C(C)(C)O4)n2)cc(OC)c1OC [Tamatinib] (first compound 1 µM, partner dose 0.4 µM)",cell count,WM115,80.8%
same,cell count,WM1716,87.6%
same,cell count,WM1745,73.2%
same,cell count,WM3526,88.5%
same,cell count,WM3619,89.9%
same,cell count,WM451Lu,85.5%
"CCCS(=O)(=O)Nc1ccc(F)c(C(=O)c2c[nH]c3ncc(Cl)cc23)c1F + O=c1cc(-c2cccc3c2Sc2ccccc2S3)oc(N2CCOCC2)c1 [KU55933] (first compound 0.08 µM, partner dose 1 µM)",cell count,WM115,80.3%
same,cell count,WM1716,110%
same,cell count,WM1745,96.3%
same,cell count,WM3526,63.1%
same,cell count,WM3619,71.8%
same,cell count,WM451Lu,97%
"CN(c1ncccc1CNc1nc(Nc2ccc3c(c2)CC(=O)N3)ncc1C(F)(F)F)S(C)(=O)=O + OCCn1cc(-c2cnc3nnn(Cc4ccc5ncccc5c4)c3n2)cn1 [PF04217903] (first compound 0.08 µM, partner dose 1 µM)",cell count,WM115,78.5%
same,cell count,WM1716,92.7%
same,cell count,WM1745,84.5%
same,cell count,WM3526,98%
same,cell count,WM3619,75.3%
same,cell count,WM451Lu,47.1%
"CCCS(=O)(=O)Nc1ccc(F)c(C(=O)c2c[nH]c3ncc(Cl)cc23)c1F + C=CCNC1=C2C[C@@H](C)C[C@H](OC)[C@H](O)[C@@H](C)/C=C(\C)[C@H](OC(N)=O)[C@@H](OC)/C=C\C=C(/C)C(=O)NC(=CC1=O)C2=O [Tanespimycin] (first compound 0.08 µM, partner dose 0.002 µM)",cell count,WM115,91.7%
same,cell count,WM1716,108%
same,cell count,WM1745,97.9%
same,cell count,WM3526,83.2%
same,cell count,WM3619,107%
same,cell count,WM451Lu,123%
